To fix the notation:
B1: CPEB3 Ribozyme (parent)
chain: UAACAGGGGGCCACAGCAGAAGCGUUCACGUCGCAGCCCCUGUCAGAUUCUGGUGAAUCUGCGAAUUCUGCUGUAUAUCUC

The source gives no read counts; variants with many changes may rest on few reads.

Variants of B1 are the subject of this data set. As to the kind of experiment: self-cleavage, relative activity (ratio to wild type); higher = more cleavage; in vitro, sequencing. In outline:
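Relative activity compares each variant's cleaved/total read fraction with that of the unmutated ribozyme. To get these fractions, barcoded CPEB3 ribozyme libraries from rounds of error-prone PCR were transcribed with T7 RNA polymerase for 5 hours at 37°C and then given 15 min of DNase I treatment before EDTA was added. The RNAs were reverse transcribed with template switching and sequenced on Illumina, and DNA sequencing linked barcodes to variants. A minimum of 5 reads applied, and three batches were averaged.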
On to A18U G33A A35U U60C, for which the self-cleavage is 0.08. The figure for A18U U49A A56G U67C is 0.1; for A18U U31A A57G it is 0.44; for A18U A28G A35U it is 0.11.

In the case of A18G U31C U51A A65G A77G, the self-cleavage was found to be 0.15. A18U A20U A65G U69A U72G U74A: the self-cleavage worked out at 0.07.

A18U U60C C81A: the self-cleavage turned out to be 0.18. As to A18G C37U U67C, the self-cleavage came out at 0.3. A18G U25C U78G: the self-cleavage worked out at 0.07.

A18G U26C A56G: the self-cleavage came out at 0.16. For A18U U31C U67C, the self-cleavage stood at 0.11.

As for A18U U54C A56G U58C, the self-cleavage worked out at 0.17.

In the case of A18G G30A A56U, the self-cleavage turned out to be 0.26.

As for A18G A56U A64U A77G, the self-cleavage came to 0.38. In the case of A18U U43C U66C U80C, the self-cleavage is 0.13. The figure for A18U C34U U51A is 0.1; for A18G U54C U66C it is 0.15; for A18U U41A U54G U60C U72C it is 0.1. The figure for A18G U25A U31C U43C U51A U54C U60C is 0.17. Take A18U U41C U49A C59U: the self-cleavage is 0.2.

In the case of A18G A47U A56G U74C, the self-cleavage was found to be 0.12. For A18G U41A U49C, the self-cleavage worked out at 0.09. To A18U U60C A64G A65G belongs 0.22; to A18G A57G A65G, 0.12; to A18G G19C A28U G30A U67C U76C, 0.05.

For A18G U48A U54C A75G, the self-cleavage amounted to 0.09.

As to A18U A28U A77U, the self-cleavage stood at 0.32. To A18U A56U U66C belongs 0.25; to A18U A20U A56U U58C U67G U78C, 0.07; to A18G U25C U43C A56G U78C U80A, 0.15.

On to A18U C34G U49A, for which the self-cleavage was 0.14. The figure for A18U U26C A47G A77U is 0.24; for A18G U54C A64G U80C it is 0.44; for A18G A45U U80A it is 0.47. As for A18G A45U U80C, the self-cleavage is 0.59. For the variant A18G C40U G63U U80A, the self-cleavage worked out at 0.47. Consider A18U U31C A45U A56U, for which the self-cleavage was found to be 0.06. Consider A18G U49C A65C, for which the self-cleavage worked out at 0.1. The figure for A18G U41C G42C A45U A64G is 0.24; for A18U U43A A45U it is 0.27; for A18G U26G U31C U54C U80C it is 0.45.

Consider A18U G24C U49C, for which the self-cleavage turned out to be 0.16. The figure for A18U U49C U51C U69A is 0.36; for A18G U49C C62U U69C it is 0.38; for A18U U25C A45U U49C U76A it is 0.03. As to A18G A45G U49C G52C U58C, the self-cleavage turned out to be 0.06. For A18U A21G U54C U74C, the self-cleavage came out at 0.05. To A18U A45U U69C U80C belongs 0.14. To A18G C23U U43A belongs 0.17. For the variant A18U U74C U78C, the self-cleavage is 0.81. The figure for A18G A47G U58C is 0.71. Turning to A18U A20G U26A A28U A64G U69C, the self-cleavage was determined as 0.06. To A18G C29G U41A U67C U76C belongs 0.09; to A18G U49C U60C U72A, 0.15.

For the variant A18G U26G U69C, the self-cleavage is 0.24. The figure for A18U C23U C29G G52C A56G is 0.08.

On to A18U U60C U66C, for which the self-cleavage worked out at 0.31. As for A18U A75U U78A, the self-cleavage was found to be 0.38. The figure for A18G C23U U43A U48C U58A A64U G73A is 0.03; for A18U U31G A64G U74C it is 0.13. As to A18G U26C A35U U41C U49A U58A, the self-cleavage was found to be 0.2.

Consider A18G A57G U58A, for which the self-cleavage was determined as 0.2.

As to A18U A28G U58A U80A, the self-cleavage was 0.07. Regarding A18U A20G U25C, the self-cleavage was found to be 0.06. The figure for A18G U43C U58C G63A is 0.06; for A18U C50A A56G C59U it is 0.14. For G19A A35C G73U, the self-cleavage was 0.08. Take A18G G19U G36C U54C U66C U78C: the self-cleavage was 0.1. For the variant A18G C27A U48A A56G U80A, the self-cleavage was 0.04. The figure for A18G C37U U66C is 0.16. To A18U A21G U25C A64G A65U belongs 0.05; to A18U C38U U41C U72A, 0.19; to A18U A20G G24A U66C, 0.21. The figure for A18G U54A A56U is 0.46. Consider A18U A21G C37A A45G G55U U60C, for which the self-cleavage was determined as 0.2. As to A18U U58C U66C U80C, the self-cleavage was 0.19. To A18G U25C U43A A45G U54A U67G U72C belongs 0.04; to A18U C29U A64G, 0.27. The figure for A18U A28G A45C is 0.15; for A18G G52U U60A C68U G73C A75G it is 0.28; for A18U A20G G33A A45C it is 0.07. The figure for G19A A28G U80C is 0.1. Consider A18U U26C U80C, for which the self-cleavage is 0.08. The figure for A18G U41C U43A A57G U72A is 0.14. To A18U U31C U41C A57G belongs 0.14; to A18U U41A U69G U78C U80A, 0.09. To A18G A56G U76A belongs 0.25; to A18U A20U C62A, 0.14; to A18U A28G C38A A57G A65G, 0.03.

A18G C37A A45U: the self-cleavage is 0.22. A18G A56G G73U U80C: the self-cleavage worked out at 0.86. For the variant A18G U26G A35U, the self-cleavage is 0.27.

Consider A18U A21G G52A U72C, for which the self-cleavage was 0.51. Take A18G U41A U54G G63U U67A: the self-cleavage turned out to be 0.06. On to A18U A20G A56G G70A A77G, for which the self-cleavage was found to be 0.12.

For A18U U26C U51A C68A U72C, the self-cleavage turned out to be 0.05. Regarding A18G U25C U43A A47G U67C, the self-cleavage worked out at 0.1. On to A18U A28G U31A U66C U72C, for which the self-cleavage amounted to 0.06.

A18G U31C A57G U58C U72A: the self-cleavage turned out to be 0.09. Turning to A18U U69A G70C, the self-cleavage stood at 0.22. To A18U C37A U49C U72C U80A belongs 0.05; to A18G G19U C23A U43C U69A, 0.11; to A18G G24A U25C A45G U60C U72C, 0.17. Consider A18G G24U A45U, for which the self-cleavage was 0.43. With A18G U25C U26A A57G U69C, the self-cleavage was found to be 0.09. For the variant G19A A28G A45G U51C U66C U76C A77C, the self-cleavage came out at 0.11. For the variant A18G G24A A35G, the self-cleavage amounted to 0.21.

A18U A64U U74A: the self-cleavage was determined as 0.22. For A18G U41C U58C A64G U74A A75G, the self-cleavage amounted to 0.23. For A18G C39A U43C A45G U58C, the self-cleavage came out at 0.14. In the case of A18U U26A A56U U66C U78G, the self-cleavage was found to be 0.11.

In the case of A18G U26C U51C A57G C68A, the self-cleavage was 0.06.

In the case of A18G U26A A28U A35U A45C U67A, the self-cleavage is 0.05. To A18G U26C A28U U31C U58C U80C belongs 0.03; to A18U U26C A35C, 0.18; to A18G U25C U26C C34A A57G, 0.11. To A18G U26C U43A belongs 0.45; to A18U C38G A56C G70A, 0.07. To A18U U25C U58C C68G belongs 0.04; to A18U U51C U58C, 0.2. As to A18G U43C U72C, the self-cleavage came to 0.21. The figure for A18G U26C C29A C40A is 0.33. A18U C27U U54C A56G A64G: the self-cleavage amounted to 0.06. To A18G G33U G55C U69G belongs 0.08; to A18G U31A A35U A45U A47G U66C, 0.09; to A18G U48C G61C U76A A77G, 0.1. A18G U43C A47G A64G: the self-cleavage is 0.16. In the case of A18G A45G U49C A65G U69A U74C, the self-cleavage is 0.01. The figure for A18G G52U A65G is 0.22; for A18U U26C U43C A56G U58A A65U it is 0.05. For the variant A18U U26C A28U U58A U60C A64C U67C, the self-cleavage is 0.02. The figure for A18U U49C U66A U72A is 0.09; for A18U A45G A56G U72C it is 0.44; for A18G C23U C32U U51A it is 0.23. For A18G U41A U48G U49A G61A, the self-cleavage was 0.12. The figure for A18U A21G U26C U41C C50G U69G is 0.02; for A18G A56U A77G it is 0.35; for A18G A57C U72A it is 0.25. As to A18U A20G A35G U41C U51A U54C, the self-cleavage was 0.49. The figure for A18U U26A C32U is 0.15.

On to A18G U31C A47G U49G U72C U78C, for which the self-cleavage came out at 0.25. On to A18G U43C A47G C59U U67A, for which the self-cleavage stood at 0.13.

Take A18U U43C A65G U67C U76C: the self-cleavage is 0.18. For the variant A18U C29U U41C C62U A65G U72G, the self-cleavage stood at 0.07. As to A18U U26A U43C A64G A75G, the self-cleavage is 0.05. Regarding A18G U43C U69C U78A U80C, the self-cleavage is 0.56.

For the variant A18U U31A A35U G53U U67A U69A A75U, the self-cleavage amounted to 0.05.

A18U A28G U66C A75G U76C: the self-cleavage was found to be 0.11. To A18U U26G U58C A64G U80C belongs 0.04; to A18G C62U U69C, 0.13. Consider A18G A57G A65G U72A, for which the self-cleavage is 0.14.

In the case of A18U U26C A35G U51C, the self-cleavage came out at 0.37. The figure for A18U A21G A35G is 0.52; for A18U U31A C38U A45U U48C A64U it is 0.05. To A18U U26C C44A C62G belongs 0.11; to A18G A65G A77U U80A, 0.35. On to A18U U48A A56C U74C, for which the self-cleavage amounted to 0.05. The figure for A18U U26A U31A A57G U78C is 0.06; for A18G A57G U69A it is 0.45.

Turning to A18G C29A A45U U58C C62A, the self-cleavage was found to be 0.47. A18U U51C U54C: the self-cleavage turned out to be 0.11. The figure for A18G U26A U58A U69G U78C is 0.12; for A18U A20G U69C it is 0.23. Regarding A18G U26C U41C A45G U54A U72C, the self-cleavage came to 0.07.

A18G U25A A57U U80C: the self-cleavage turned out to be 0.23. The figure for A18G C23U U67C is 0.1.

As for A18G C39A A47U, the self-cleavage worked out at 0.05.

Values taken from the RNAGym collection of RNA variant scans (doi:10.1093/nar/gkz1192).
